# Data reported in publication PMC4336329 (PLoS ONE, 2015).
# Out of some 310,000 compounds screened, about 14,000 (4.5%) showed an effect of 50% or more. The effect is printed as a negative number. Some of the results follow.
# Target: human ether-à-go-go-related gene (hERG) potassium channel (human, UniProt Q12809)
# Assay: primary screen, population patch clamp on CHO cells stably expressing hERG
# 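Also: peak tail current of the secondary pulse compared with the same well before compound.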
# Sequence of human ether-à-go-go-related gene (hERG) potassium channel (Q12809 whole entry, looked up): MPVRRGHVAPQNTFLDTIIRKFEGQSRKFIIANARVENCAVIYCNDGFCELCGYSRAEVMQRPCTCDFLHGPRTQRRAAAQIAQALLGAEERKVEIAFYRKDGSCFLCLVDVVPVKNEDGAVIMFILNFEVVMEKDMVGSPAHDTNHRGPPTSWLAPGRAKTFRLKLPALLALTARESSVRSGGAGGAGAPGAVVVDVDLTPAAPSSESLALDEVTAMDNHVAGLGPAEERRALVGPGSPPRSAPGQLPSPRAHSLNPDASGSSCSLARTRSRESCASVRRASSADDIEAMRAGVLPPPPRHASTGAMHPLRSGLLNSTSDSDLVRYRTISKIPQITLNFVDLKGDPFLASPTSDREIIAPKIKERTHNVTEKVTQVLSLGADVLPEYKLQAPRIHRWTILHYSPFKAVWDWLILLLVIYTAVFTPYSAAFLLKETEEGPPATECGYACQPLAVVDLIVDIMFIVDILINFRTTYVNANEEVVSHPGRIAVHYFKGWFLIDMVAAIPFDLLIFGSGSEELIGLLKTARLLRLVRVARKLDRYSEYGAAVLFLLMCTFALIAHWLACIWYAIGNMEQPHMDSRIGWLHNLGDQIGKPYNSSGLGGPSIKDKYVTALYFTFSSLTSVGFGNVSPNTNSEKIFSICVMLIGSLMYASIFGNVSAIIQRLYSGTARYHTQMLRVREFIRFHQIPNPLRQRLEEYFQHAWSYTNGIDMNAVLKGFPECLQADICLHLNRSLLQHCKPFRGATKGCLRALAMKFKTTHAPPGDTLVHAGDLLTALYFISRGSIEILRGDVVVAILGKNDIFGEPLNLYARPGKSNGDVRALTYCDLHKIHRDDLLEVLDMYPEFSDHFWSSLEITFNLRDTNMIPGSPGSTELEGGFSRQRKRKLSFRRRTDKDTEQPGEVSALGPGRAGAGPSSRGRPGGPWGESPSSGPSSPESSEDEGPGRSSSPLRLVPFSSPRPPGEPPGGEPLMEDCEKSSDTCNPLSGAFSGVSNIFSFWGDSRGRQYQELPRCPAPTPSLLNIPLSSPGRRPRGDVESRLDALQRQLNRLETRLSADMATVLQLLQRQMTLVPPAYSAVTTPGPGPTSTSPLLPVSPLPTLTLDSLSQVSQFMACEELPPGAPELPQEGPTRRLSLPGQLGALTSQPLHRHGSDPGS
row,SMILES,"hERG current change (%, negative = inhibition) at 10uM [%]"
1,CC(C)c1ccc(NC(=O)COc2ccccc2)cc1,-0.635
2,CC(=O)Nc1ccc2nc(-c3cccn3C)[nH]c2c1,12.8
3,CCN(CC)S(=O)(=O)c1ccc(OC(C)C)c(NC(=O)C2=COCCO2)c1,-42.5
4,Cc1cccc(Cn2cnc3c(sc4nc(C)cc(C)c43)c2=O)c1,-4.64
5,Cc1ccsc1/C=N/NS(=O)(=O)c1ccc([N+](=O)[O-])cc1,8.62
6,c1cncc(-c2csc(NCc3ccco3)n2)c1,-2.28
7,CCn1c(C(O)c2ccc3c(c2)OCO3)nc2ccccc21 (stereo not shown),-2.47
8,O=C(O)c1cccnc1C(=O)O,11.9
9,CC(C)(C)c1ccc(C(=O)Nc2cccc3c(=O)[nH][nH]c(=O)c23)cc1,-9.65
10,CCOC(=O)CSC1=NN2CCS(=O)(=O)N=C2S1,14.8
11,O=C(COc1cc([N+](=O)[O-])cc2cccnc12)NCCC1=CCCCC1,-46.5
12,Cc1ccn2c(NC(=O)c3ccco3)c(-c3ccccc3)nc2c1,-23.7
13,O=C(Nc1cccc(-c2nc3ccccc3s2)c1)C1=COCCO1,8.33
14,Cc1nn(C)c2ncc(C(N)=O)c(Oc3cccnc3)c12,5.37
15,COC(=O)C1CCN(C(=O)COC(=O)CNS(=O)(=O)c2ccc(SC)c([N+](=O)[O-])c2)CC1,-21.9
16,Cc1nc2nc(SCC(=O)NCCCN3CCCCCC3)nn2c(C)c1Cc1ccccc1,-16.5
17,COc1cccc(NC(=O)NCc2ccccn2)c1,11.3
18,Cc1ccc(-n2c(Cc3cccn3C)nnc2SCC(=O)N2CCN(c3ccccc3)CC2)cc1,-8.15
19,COc1ccc(CCNC(=O)CCNC(=O)c2ccc([N+](=O)[O-])cc2)cc1,-3.9
20,Cc1cc(C)c(NC(=O)CCCSc2nnc(N)s2)c(C)c1,-14.8
21,Cc1c(C(=O)OCC(=O)NCCN2C(=O)CSC2=O)cccc1[N+](=O)[O-],-25
22,CN(C)c1ccnc(N(Cc2ccccc2)Cc2ccccc2)c1C#N.Cl,-6.74
23,Cc1ccc(NC(=O)CSc2nc3ccccc3nc2N2CCCC2)cc1,-7.28
24,Cn1c(CCNC(=O)c2ccccc2)nc2ccccc21,-8.6
25,COc1ccc(CCNC(=O)CN2CCN(c3cccc(Cl)c3)CC2)cc1OC,-18.1
